# Measurements: article PMC4336329 (PLoS ONE, 2015)
# Screen size: about 310,000 compounds; about 2,200 (0.71%) showed an effect of 50% or more. Effects have a minus sign here. The list shows a part of the results.
# Target: human ether-à-go-go-related gene (hERG) potassium channel (human, UniProt Q12809)
# Assay: primary screen, population patch clamp on CHO cells stably expressing hERG
# Sequence of human ether-à-go-go-related gene (hERG) potassium channel (Q12809 whole entry, looked up): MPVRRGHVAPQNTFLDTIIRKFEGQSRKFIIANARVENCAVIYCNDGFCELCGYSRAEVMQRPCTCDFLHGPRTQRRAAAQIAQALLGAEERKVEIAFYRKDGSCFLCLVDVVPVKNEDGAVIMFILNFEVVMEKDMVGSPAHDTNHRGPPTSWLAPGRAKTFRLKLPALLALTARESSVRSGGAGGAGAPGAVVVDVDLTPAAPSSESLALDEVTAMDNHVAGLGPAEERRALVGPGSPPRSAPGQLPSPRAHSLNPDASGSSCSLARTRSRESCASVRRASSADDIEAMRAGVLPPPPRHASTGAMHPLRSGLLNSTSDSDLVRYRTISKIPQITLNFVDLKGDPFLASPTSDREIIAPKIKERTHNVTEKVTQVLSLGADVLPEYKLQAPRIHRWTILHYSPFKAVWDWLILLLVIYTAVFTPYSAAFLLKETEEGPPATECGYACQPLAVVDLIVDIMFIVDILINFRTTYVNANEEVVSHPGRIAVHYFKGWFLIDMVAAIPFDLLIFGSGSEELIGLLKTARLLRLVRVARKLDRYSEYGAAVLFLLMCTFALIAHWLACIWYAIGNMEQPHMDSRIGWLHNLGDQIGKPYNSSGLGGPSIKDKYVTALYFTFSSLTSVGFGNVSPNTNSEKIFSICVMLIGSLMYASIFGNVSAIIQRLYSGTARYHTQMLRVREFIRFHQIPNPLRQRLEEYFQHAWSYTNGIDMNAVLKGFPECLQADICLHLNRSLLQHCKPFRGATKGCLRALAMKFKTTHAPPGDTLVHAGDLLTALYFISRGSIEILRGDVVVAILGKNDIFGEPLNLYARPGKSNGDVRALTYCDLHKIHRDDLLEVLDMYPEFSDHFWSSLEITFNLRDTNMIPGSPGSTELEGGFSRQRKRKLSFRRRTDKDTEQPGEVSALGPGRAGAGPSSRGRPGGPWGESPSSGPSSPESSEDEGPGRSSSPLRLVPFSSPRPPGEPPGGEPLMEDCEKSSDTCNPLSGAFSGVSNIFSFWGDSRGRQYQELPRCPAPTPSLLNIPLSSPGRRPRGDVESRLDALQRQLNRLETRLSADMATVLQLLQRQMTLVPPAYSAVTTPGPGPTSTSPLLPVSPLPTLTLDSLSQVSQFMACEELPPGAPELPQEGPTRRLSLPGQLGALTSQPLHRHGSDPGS
row,SMILES,"hERG current change (%, negative = inhibition) at 1uM"
1,O=C(NC1CCCC1)C(c1ccsc1)N(C(=O)Cc1cccs1)c1ccccc1 (centres unmarked),8.12%
2,O=c1c2ccccc2oc2nc(-c3ccco3)n(Cc3ccccc3)c(=O)c12,5.08%
3,CCOC(=O)Cc1csc(SCC(=O)/C(C#N)=C(\C)N)n1,6.86%
4,COc1cccc(C(=O)Nc2ccncc2)c1OC,9.58%
5,COc1ccc(OC)c(C2C(C(C)=O)=C(O)C(=O)N2Cc2cccnc2)c1 (centres unmarked),7.26%
6,COc1cccc(Nc2ccc(C(=O)O)cc2N)c1,13.4%
7,COc1ccc(CC(NC(C)=O)C(=O)NC2CCN(C(=O)c3ccccc3F)CC2)cc1 (centres unmarked),14.7%
8,CNc1ccc([N+](=O)[O-])cc1-c1nc2ccccc2[nH]c1=O,27.4%
9,S=c1[nH]nc(-c2ccccn2)n1/N=C/c1ccc(Cl)cc1,10.2%
10,CCOc1ccc(NC(=O)CN(C)C(=O)c2ccc(OCc3ccccc3)c(OC)c2)cc1OCC,7.4%
11,Cc1cc(Cl)ccc1OCCCC(=O)Nc1cccc(-n2cnnn2)c1,1.28%
12,O=C(CCCCl)NC(=S)Nc1ccc(CN2CCOCC2)cc1,1.17%
13,O=c1c2c3c(sc2n2cnnc2n1Cc1ccccc1)CN(Cc1ccccc1)CC3,-0.523%
14,Nc1c(C(=O)Nc2ccc(F)cc2)sc2nc(-c3ccco3)ccc12,5.39%
15,Cc1cc(C(=O)NNC(=O)Cc2ccc(Cl)cc2)c(C)o1,-24.8%
16,C/C(N)=C(/C#N)C(=O)COc1ncnc2ccc(Br)cc12,2.43%
17,CCCC1=C/C(=C/c2ccc(-c3ccccc3OC)o2)C(=O)O1,3.26%
18,CC(C)c1ccc(N(CC(=O)N2CCOCC2)S(C)(=O)=O)cc1,9.74%
19,Cc1scc(C(=O)N/N=C/c2ccsc2)c1C,5.8%

row,SMILES,"hERG current change (%, negative = inhibition) at 1uM"
1,C=CCn1c(=S)[nH]c2cc(C(=O)NCCc3ccc(S(N)(=O)=O)cc3)ccc2c1=O,0.0661%
2,CCc1ccc(C2CC(c3cccc(Cl)c3)n3nc(N)nc3N2)cc1 (centres unmarked),-5.07%
3,CCOc1ccc(C(=O)NCC2(c3ccccc3)CCOCC2)cc1,15.2%
4,CCOC(=O)CC1C(=O)NCCN1C(=O)c1ccc(Cl)cc1Cl (centres unmarked),4.9%
5,COc1cc(CN2CCCC(C(=O)c3ccccc3SC)C2)cc(OC)c1 (centres unmarked),-9.13%
6,O=C(C1CCCN1S(=O)(=O)c1cccc2nsnc12)N1CCN(c2ccc(F)cc2)CC1 (centres unmarked),-54.1%
7,Cc1cc(NC(=O)COC(=O)CC2CCCC2)c([N+](=O)[O-])cc1C,-1.08%
8,O=C(Cn1cc([N+](=O)[O-])cn1)NCc1ccccc1Cl,16.8%
9,CCOC(=O)N1CCN(C(=O)COc2cc(=O)n(CC)c3ccccc23)CC1,7.42%
10,Cc1ccc(N(C)S(=O)(=O)c2cccc(C(=O)NC3=NCCS3)c2)cc1,19.9%
11,C=CCn1c(SCC(=O)c2ccc(F)cc2)nnc1-c1ccc2c(c1)OCO2,0.0233%
12,Cc1csc(NC(=O)Cc2ccc(Cl)cc2)n1,0.992%
13,c1ccc(-c2csc(N3CCc4ccccc4C3)n2)cc1,12%
14,O=[N+]([O-])c1ccc(O)c(C(C#Cc2ccccc2)N2CCOCC2)c1 (centres unmarked),6.76%
15,COc1ccc(S(=O)(=O)N2CCN(c3cc(-c4ccccc4)nc4ncnn34)CC2)cc1,-14.2%
16,Cc1cc(=O)n2nc(N3CCC(C(=O)N4CCN(Cc5ccccc5)CC4)CC3)sc2n1,-0.842%
17,Cc1cccc(Nc2nc(N)nc(CCl)n2)c1,11.4%
18,O=C(O)CSC(=S)N1CCCC1,10.3%
19,CCN(C(=O)COC(=O)/C=C/c1nc2ccccc2s1)C1CCS(=O)(=O)C1 (centres unmarked),12.4%

row,SMILES,"hERG current change (%, negative = inhibition) at 1uM"
1,Cc1cc(NC(=O)CN2C(=O)CCSc3ccccc32)no1,9.96%
2,C=CCn1c(O)c(N=NC(=O)CNC(=O)/C=C/c2ccc(OC)cc2)c2ccccc21,21.7%
3,O=C(O)c1ccc[nH]c1=S,11%
4,Cc1ncc([N+](=O)[O-])n1CCOC(=O)NC(NCc1cccnc1)C(Cl)(Cl)Cl (centres unmarked),9.75%
5,CCOC(=O)N1CCN(C(=O)C2CCN(S(=O)(=O)c3ccc(F)cc3)CC2)CC1,-13.2%
6,CC(=O)O[C@H]1CC[C@@]2(C)[C@@H](CC[C@H]3[C@@H]4CC[C@H](C(C)O)[C@@]4(C)CC(=O)[C@@H]32)C1 (some centres unmarked),-8.68%
7,COc1cccc(N2CCN(Cc3nc(N)nc(Nc4ccccc4)n3)CC2)c1,-31.9%
8,Cn1c(N)c(C(=O)CSc2nnc(C3CC3)n2Cc2ccccc2)c(=O)[nH]c1=O,6.95%
9,CC(C)OC(=O)COc1cc(O)c2c(=O)cc(-c3ccccc3)oc2c1,10.8%
10,Cc1[nH]c2ccccc2c1/C=N/NC(=S)NC(C)C,16.1%
11,Cc1cc(F)ccc1S(=O)(=O)N1CCCCC1CCNC(=O)C(=O)NCc1ccccn1 (centres unmarked),-31.1%
12,CCn1c(SC(C)C(=O)Nc2ccc3c(c2)OCCO3)nnc1C1CC1 (centres unmarked),12%
13,COc1cc(-c2nc3c(c(C)nn3-c3ccccc3)c3cc(OC)c(OC)cc23)ccc1O,6.21%
14,CCNC(=O)CSc1nc2ccccc2c(=O)n1OC,11.3%
15,O=C(CCNC(=O)c1ccc(Br)o1)NCc1ccccc1Cl,6.09%
16,Cc1cc(Cl)ccc1OCC(=O)NCCOc1nc(N2CCOCC2)nc(N2CCOCC2)n1,-11%
17,O=C(CNC(=O)c1ccc(F)cc1)N/N=C/c1ccc(O)c([N+](=O)[O-])c1,6.48%
18,CCC(Oc1ccccc1)C(=O)NC1C(=O)N2C1SC(C)(C)C2C(=O)[O-].[K+] (centres unmarked),7.87%
